The supplement of paper PMC3334620
Whole data set: some 33,000 sequences, median “E-score (-0.5 to 0.5)” near -0.04, cut for the highest 2% near 0.36. Some of the results follow.

biological target: T1, Hmlalpha2 (UniProt P0CY09); test: PBM E-score (8-mer binding enrichment) (E-score (-0.5 to 0.5)); higher = stronger / more preferred TF binding; most listed sequences are background and not binding sites; settings: protein concentration: 200 nM; construct: GST-full length
T1 sequence: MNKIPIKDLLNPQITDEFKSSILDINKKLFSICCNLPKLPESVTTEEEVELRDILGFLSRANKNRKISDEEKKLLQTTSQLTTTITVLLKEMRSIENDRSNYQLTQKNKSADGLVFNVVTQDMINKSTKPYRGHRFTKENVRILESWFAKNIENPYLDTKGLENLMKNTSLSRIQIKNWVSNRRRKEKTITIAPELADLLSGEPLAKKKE
Procedure: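 Universal 'all 10-mer' protein binding microarrays (Agilent AMADID 015681) probed with GST-tagged S. cerevisiae TFs (full-length or DBD) made by in vitro transcription/translation (PURExpress), about 100-200 nM. Bound TF was detected with fluorescent anti-GST. Each ungapped 8-mer (which stands for itself and its reverse complement) is scored by the PBM enrichment score (E-score), a modified Wilcoxon-Mann-Whitney statistic from -0.5 to +0.5, computed with the Universal PBM Analysis Suite. Scale: above 0.35 generally sequence-specific binding.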

Sequence | PBM E-score
CCCTCGAG | -0.0849
ACCCTTGA | -0.207
ACAGTGTA | 0.244
ACAATGCG | 0.163
GAGTTGCC | -0.11
TAAAGTGA | 0.0621
ACGGTAAA | 0.0343
ACTCCAAG | -0.0433
TCACGTCA | -0.0196
GTCTAGCA | -0.106
TTTGCAAA | 0.0325
AGTGGGGC | -0.34
GAAGTGCA | -0.0586
CCGCGGTC | -0.158
GCGGTCAA | 0.0293
AAGATAAT | 0.0837
CATATTTA | 0.206
GCCCTAGC | -0.223
AGCCAGAT | -0.0722
GGAACTAA | -0.00978
CTGACGGC | -0.355
AATTACGC | 0.431
AGGCAAAA | -0.146
ATCACAGA | 0.0948
GTCGACAA | -0.0181

Sequence | PBM E-score
TATACAAA | 0.265
AGCTGTCG | -0.0732
CCAATGAG | -0.18
ACAAGTTC | 0.0505
AACGGACC | -0.0165
ACCGAGAG | -0.191
GGGCGTGA | -0.0441
CCGAAGAG | -0.112
GCCGCTTA | -0.0607
TAATCCAA | 0.148
ACTCGAAG | -0.154
CCCTCTCA | -0.244
CCCCAAAC | -0.0758
CCCGAGTA | 0.00896
ACCCCCAT | -0.322
ATATGTCC | 0.078
CCGCACTA | -0.0914
CTTCCTAA | 0.0557
CGTGGGAG | -0.125
CCGAACCC | -0.307
CGCTCGCA | -0.145
AAAACAGA | 0.137
ACTCTGTC | -0.0428
ATACTTTC | -0.0215
GCCACGAA | -0.24

Sequence | PBM E-score
GTCAGCAC | 0.00173
CTTGATAA | 0.188
TACTATCA | 0.0862
ACCCGCGT | 0.264
GGGGCAGA | -0.09
GTTTCGCA | -0.0552
CATATACC | -0.0816
ATCAGAGA | -0.0644
AATCACTC | -0.133
CATTCTAA | 0.157
ACGCACCA | 0.0903
ACTAAGCA | 0.165
CCTGCTGC | -0.247
GAAGTGTC | -0.059
ACTGAGTG | -0.0291
AGGTTTCA | -0.106
ACGGGAAC | -0.0568
AGAAGGAA | -0.351
AGATAGCA | -0.0944
AGCGTTAA | 0.0425
ACGTGTTA | 0.45
GACTTTAC | 0.148
CTAGGCGA | -0.354
ATTGTTCA | 0.175
CTACATGA | 0.421

Sequence | PBM E-score
CTGTTTGC | 0.0985
TAGCGCGA | -0.102
AGGCCACG | -0.127
CGATTGAA | -0.126
CGATAGTA | -0.0878
ATACACAC | 0.429
GAACAAAC | 0.294
AGTCGTGG | -0.12
GGAATCGA | -0.107
AACATCAC | 0.308
TTACAGAA | 0.235
GTATCACA | 0.215
CACGGTTA | 0.214
CCATAGAA | -0.0708
CAAATTCC | 0.0903
TGCGTTAA | 0.397
CAAAGGGA | -0.0281
ACGGCGGA | -0.275
AGCACGTC | 0.0271
CCGGGCCC | -0.182
AGTACCAA | 0.128
CTTGACTC | -0.216
AAATGGCC | -0.0982
ACAGACGG | -0.164
GCTGTGGA | -0.156

Sequence | PBM E-score
ATGAGGCC | -0.277
ACTTACGG | -0.0366
AGCCGATA | -0.23
GGTCTGAA | -0.0484
GTAGAAAA | 0.288
TGATCTAA | 0.0816
CCCGTGAA | -0.101
AGGCTTCC | -0.174
TTGGTAAA | 0.246
GAATCGCC | -0.285
AGGAGGCA | -0.303
CGGATGTA | 0.196
TGCTGACA | 0.0801
CAAGAATC | 0.104
CGCAAAAA | 0.117
TATAATCA | 0.225
CAGGACAC | -0.0394
ATCAACGA | 0.0337
AACAACCG | 0.156
AAATATAT | 0.297
AACACCCA | -0.0548
ACATTGCG | 0.249
ATTCGTGA | 0.0967
GCACGAAA | 0.0721
GCGCTGTA | 0.0785

Sequence | PBM E-score
GCAGCCGA | -0.13
ATAGAGAT | 0.0789
GAGTGCCA | -0.281
GACAATGA | -0.0828
ATCATATC | 0.0449
GCCAAGTA | -0.0244
CGCTACTA | 0.106
AACAGTCG | -0.186
AAAGCAAC | 0.115
GGGGATAA | -0.178
ACTCCGGG | -0.19
CCCTTCGC | -0.212
TCTAGCCA | -0.166
CAAGCCGA | 0.0589
GGTCTTCA | -0.313
AAATGTAT | 0.277
CAGATGTA | 0.0641
AACATTAT | 0.326
AAGCACAG | 0.0362
CGGGTTCA | -0.0294
ACCCCACT | -0.257
CATATAAC | 0.157
ACAGTATG | 0.0436
AGCGCCTC | -0.277
CACTTCCA | 0.092

Sequence | PBM E-score
AGTCCACA | -0.0378
CGTGACTA | 0.0651
ACTCTGAA | -0.0779
AATACCGA | -0.111
CTAATCGA | 0.00191
AGCGCAGC | -0.176
CTTACAGA | 0.0289
AGATAAGA | 0.0492
CAATGCAG | 0.00435
ATAGAGAA | 0.123
TATGGCGA | -0.299
CCCGATGA | -0.0127
CAGTCAAA | 0.0031
ACAGGCAC | -0.0734
CGCATAGA | -0.216
TCTTAACA | 0.404
AAACGCTT | 0.0378
CACTTGAA | 0.0542
AGGAGCAT | 0.0896
AGTTAACC | 0.103
AATACATT | 0.329
CGAGACGC | -0.125
AGTTGTTA | 0.246
ATCCGCCG | -0.0747
AAGCGTGT | 0.371

Sequence | PBM E-score
AGCCAGTG | -0.158
TCGGGTCA | -0.204
CGCTATAA | -0.00727
CCAAATGC | -0.167
AGTACTAT | 0.0829
ACTATGCC | -0.0399
ATTACTCA | 0.22
AACACTCT | 0.235
CCCTGCGG | -0.264
ACAATGTC | 0.176
AAAAGTGG | -0.0409
AGAAGCCC | -0.168
GGGCCCCA | -0.372
CATAGGTC | -0.0447
AGTCCTCA | -0.254
ATCCTGCA | -0.0119
CAAGTACG | 0.0911
CGCAGACG | -0.108
GACCGATC | -0.144
ATTGAATG | 0.069
GTGTTGAA | 0.398
AAGGTCCA | -0.219
CCGTATCG | -0.212
CCGCGCAG | -0.204
CCGTCGTC | -0.267

Sequence | PBM E-score
ATTCGCGC | -0.0468
GGGCCACA | -0.275
CAGACGAG | -0.129
CGCTTAAC | 0.217
AGTGACAC | 0.222
AATCTACA | 0.438
CCCTACTC | -0.141
AGCTTGAC | -0.148
CCCCCTTA | -0.375
GAATCACA | 0.0227
AACCTATC | -0.15
AAAGCTCT | -0.154
CTTGGCTC | -0.189
AGCGGAGG | -0.235
ACCTTAGG | -0.209
GGCGTTAC | 0.0453
AGATACCG | 0.0272
ACGTAGGC | -0.017
CAATCGTC | -0.0103
